Article PMC12136788
The list shows a part of the results.

T1: UNK ZnF1-6 (called full-length) (human, UniProt Q9C0B0 30-357)
T1 sequence: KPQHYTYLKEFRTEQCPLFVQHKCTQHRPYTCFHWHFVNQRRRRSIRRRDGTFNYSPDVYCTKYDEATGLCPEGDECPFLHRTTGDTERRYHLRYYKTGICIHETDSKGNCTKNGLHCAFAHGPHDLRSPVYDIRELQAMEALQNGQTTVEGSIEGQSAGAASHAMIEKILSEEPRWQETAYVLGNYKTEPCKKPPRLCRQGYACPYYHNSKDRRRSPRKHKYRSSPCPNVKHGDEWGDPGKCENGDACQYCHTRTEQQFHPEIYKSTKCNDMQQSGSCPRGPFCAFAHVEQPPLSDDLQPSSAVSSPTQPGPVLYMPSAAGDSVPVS

B1: chr7:111727939:111728040:-|3pUTR|ENSG00000128512|unk|total|mutant (ssRNA)
RNA: GGGAGUUCUACAGUCCGACGAUCAAGUGGUAAACCGUGAUAAAGACUCCUUUUGUACCUUUUUAUGUUCACUUUUUUUUAUACCGUUUAAUCUUAAAACCAAUACGAUAUUGUCAAACGAUACAAUGUGUGACAAUGUUGUAUCAACAGAGGAUUGAGCAUCA
B2: chr2:224001733:224001845:-|CDS|ENSG00000135919|unk|total|mutant (ssRNA)
RNA: GGGAGUUCUACAGUCCGACGAUCGGCCUCUGUGACGCUGCCUUCCAUCUGCUCCCACUUCAAUCCUCUGUCUCUCGAGGAACCCGGCUCCAACACGGGGAUCCAGGUUUUCAAUCAGAUUGUGAAGUCGAGGCCUCAUGACAACAACAGAGGAUUGAGCAUCA
B3: chr11:20121310:20121411:+|3pUTR|ENSG00000166833|msi1|FALSE|bound_elsewhere (ssRNA)
RNA: GGGAGUUCUACAGUCCGACGAUCAUUGUAACAUAGAAAUUGUAAAUAAUUGAUUAAAGUGCUGCAUUUUGAUGAAUUUUUUCUAGCCAUUUUUAAAGAGAAAACUAGGAAUUGAGUAUUUUGUGUACGGUAUGUUUCCAUCCUCAACAGAGGAUUGAGCAUCA
B4: chr7:127374855:127374969:-|CDS|ENSG00000048405|unk|FALSE|unique (ssRNA)
RNA: GGGAGUUCUACAGUCCGACGAUCCCUAGAAGCCAUAUAUCCAAGUGUGGACAAACGAGAAUAUAUUAUUAAGCUAGAACCCAUAGAAACUAAUCAAAAUGCAGUAUUUCAAUAUAUUUCGAGGACUGAUAAUCCUAUUGAAGUCAACAGAGGAUUGAGCAUCA
B5: chr7:88202242:88202358:+|3pUTR|ENSG00000008277|unk|total|mutant (ssRNA)
RNA: GGGAGUUCUACAGUCCGACGAUCUCAGGACCGAUAAGCAUGUACUCCUUUUUUAACUUGCUGGAAGACUUGCCCCUCCAAACCCGCACCCCCAAAAGACAACUUCUUUCAGAAACGGGGUGUUUUACCUAAACACCGCCGCUUCAACAGAGGAUUGAGCAUCA
B6: chr12:42456824:42456925:-|3pUTR|ENSG00000139174|unk|FALSE|unique (ssRNA)
RNA: GGGAGUUCUACAGUCCGACGAUCAUGAGCCACUGCGUCUGGCAAUAAUGUAACUUUGAAGCUUAAAAAUUAAUCCCAGUUUGUAGCAAUAACAGAAGACUAUCUACAACGGAAGAAAGAAGCAACUGCCUUACAGUUCUGUAACAACAGAGGAUUGAGCAUCA
B7: chr9:122916526:122916627:-|3pUTR|ENSG00000171448|unk|FALSE|unique (ssRNA)
RNA: GGGAGUUCUACAGUCCGACGAUCAUGCUUCCUAGCAUUGUGAUUUUUACAUGAUCCAGCCAAAGAGUACCAAUUCUAUGCAAUAGUGAGACUCUACCCUGUCAACCAAACAGCAUUUUUUGGUAUUUUCUGUCAACAUCAUUUCAACAGAGGAUUGAGCAUCA
B8: chr21:14371318:14371404:-|3pUTR|ENSG00000155304|msi1_unk|FALSE|overlapping (ssRNA)
RNA: GGGAGUUCUACAGUCCGACGAUCUAUGAAUAACAAUCUGAAGUCUUUUCAUAAAAAAAAUUAAUAAACUUUAGUUGUACAUUUAGCCAGUGUUAUUUGAAGUAUGUAACUUUUAAAAUAUUAAGUGUCUUGUAUGAUUAGAAUCAACAGAGGAUUGAGCAUCA
B9: chr3:68976711:68977116:-|CDS|ENSG00000163378|control|control|control (ssRNA)
RNA: GGGAGUUCUACAGUCCGACGAUCCUUUUUAGGAAUACCAAAGUUUUCAACUUUUUCAGCUUUAGAAUUUGUAAAUAUUUUUGUAGAAUAUCAUAUGACUGUAAUUCCAGAGUGUUCCAACUUGUUUAUGAUAUAUUUGGGUAACAACAGAGGAUUGAGCAUCA
B10: chr17:29575287:29575470:-|CDS|ENSG00000108262|control|control|control (ssRNA)
RNA: GGGAGUUCUACAGUCCGACGAUCUCUAGAGCUGGGCAAAGAGGAAGACUUCCACCCAGAGCUGGAAAGCCUGGAUGGAGACCUAGAUCCUGGGCUUCCCAGCACAGAGGAUGUCAUCUUGAAGACAGAGCAGGUCACCAAGAACAACAGAGGAUUGAGCAUCA
B11: chr8:80500255:80500365:+|CDS|ENSG00000205189|unk|FALSE|unique (ssRNA)
RNA: GGGAGUUCUACAGUCCGACGAUCGAAAAACCAAACUACAAAAAGAUUUAUUUAUAAUAUUCCACCUAAUAAUGAAACGAAUUUAGAAGAUUGCUCAGUAAUGCAGCCACCUGUUGCCUAUCCAGAAGAAAAUACACUACUCAUCAACAGAGGAUUGAGCAUCA
B12: chr7:123541454:123541562:-|3pUTR|ENSG00000128609|unk|total|mutant (ssRNA)
RNA: GGGAGUUCUACAGUCCGACGAUCUCCACCGUGUCAUUUUAUUUCCGUCAUUAUUGAAUUAUACCAUUUACUCUGUUUUCUUACCGUCUUAAUUUUAUUAUAUUUUGUUGUUACUGUAUUAUAUUUGAAAACCUUCAAAUCCGACAACAGAGGAUUGAGCAUCA
B13: chr4:56502255:56502306:+|3pUTR|ENSG00000174780|msi1_unk|FALSE|overlapping (ssRNA)
RNA: GGGAGUUCUACAGUCCGACGAUCAUUUCAGCUGGAGUCUGAAGAUACUUGUUUCUGUUCAAGUCCCACUUUAAAUUAUGUCUUAGGAGACUGAAAGUGGAAUCUUCUGAGCAUUCCUAAAUAUCUGCUUAGAAAUAUCAUGUGCAACAGAGGAUUGAGCAUCA
B14: chr5:75599425:75599511:+|3pUTR|ENSG00000122008|msi1_unk|FALSE|overlapping (ssRNA)
RNA: GGGAGUUCUACAGUCCGACGAUCGAAUAGCUUAAUUAAGAACUCACAGACUUUGACAAAGUGGUAACUAGACUUUUAAUUACUAGAUUCUUCAAAUUAGGCUUAAUGCCUGCUAGCAUGCCAAUCCAAUCCCAUGACUGAUGUCAACAGAGGAUUGAGCAUCA

The binders below were run against T1, UNK ZnF1-6 (called full-length) (assay: nsRBNS (natural sequence RNA bind-n-seq); RBNS binding buffer (assumed for nsRBNS): 25 mM Tris pH 7.5, 150 mM KCl, 3 mM MgCl2, 0.01% Triton X-100, 500 ug/ml BSA, 20 U/ml SUPERase-In, 4 C; UNK is unkempt and MSI1 is Musashi-1; names of the RNAs are library labels; protein concentration not given here; high values mean tight binding).

Row | Binder | binding signal
1 | B1 | 2.33 enrichment R
2 | B2 | 0.666 enrichment R
3 | B3 | 2.34 enrichment R
4 | B4 | 18.1 enrichment R
5 | B5 | 0.606 enrichment R
6 | B6 | 0.289 enrichment R
7 | B7 | 0.419 enrichment R
8 | B8 | 1.48 enrichment R
9 | B9 | 9.89 enrichment R
10 | B10 | 0.606 enrichment R
11 | B11 | 9.28 enrichment R
12 | B12 | 17 enrichment R
13 | B13 | 0.869 enrichment R
14 | B14 | 38.5 enrichment R
